# Structures can show the parent of a compound that is named as a salt. This is one part of the list. Single values of this set are uncertain. Values with irradiation are relative to irradiated vehicle.
# Test system: A549-Dual
# Assay: ISRE reporter (Lucia luciferase) activity, viability-corrected, relative to vehicle (fold change vs vehicle); higher = more activation of STING-IRF / NF-kB immune response reporter
# Conditions: 0.1 µM; irradiation: 8 Gy/4 fr
row,Structure (SMILES),ISRE reporter
1,CCC(=O)OCC(=O)C1(OC(=O)CC)C(C)CC2C3CCC4=CC(=O)C=CC4(C)C3(Cl)C(O)CC21C (stereo not given) [Beclomethasone dipropionate],0.0865
2,CC(=O)Nc1ccc(OC(=O)c2ccccc2OC(C)=O)cc1 [Benorylate],1.04
3,Nc1ccccc1NC(=O)c1ccc(CNC(=O)OCc2cccnc2)cc1 [Entinostat (MS-275)],0.795
4,COc1cc(N2CCC(N3CCN(C)CC3)CC2)ccc1Nc1ncc(Cl)c(Nc2ccccc2P(C)(C)=O)n1,0.989
5,Cc1c(-c2ccc(-c3ccccc3F)cc2)nc2ccc(F)cc2c1C(=O)O [Brequinar],0.96
6,CCC1/C=C(\C)CC(C)CC(OC)C2OC(O)(C(=O)C(=O)N3CCCCC3C(=O)OC(/C(C)=C/C3CCC(Cl)C(OC)C3)C(C)C(O)CC1=O)C(C)CC2OC (stereo not given) [Pimecrolimus],1.11
7,COC(=O)/C=C/C(=O)OC [Dimethyl Fumarate],0.698
8,Cc1cc(Nc2ncc(Cl)c(Nc3ccccc3S(=O)(=O)C(C)C)n2)c(OC(C)C)cc1C1CCNCC1 [Ceritinib (LDK378)],0.976
9,Nc1nc(Cl)nc2c1ncn2C1CC(O)C(CO)O1 (stereo not given) [Cladribine],0.946
10,CC12CCC(=O)C=C1CCC1C2C(O)CC2(C)C1CCC2(O)C(=O)CO (stereo not given) [Hydrocortisone],0.218
11,Cc1coc2c1C(=O)C(=O)c1c-2ccc2c(C)cccc12 [Tanshinone I],0.986
12,Cn1cnc([N+](=O)[O-])c1Sc1ncnc2nc[nH]c12 [Azathioprine],1.05
13,O=c1ccc2cc3ccoc3cc2o1 [Psoralen],1.06
14,CCC(=O)NS(=O)(=O)c1ccc(-c2c(-c3ccccc3)noc2C)cc1 [Parecoxib],1.12
15,COc1ccc(-c2ccc3cc(C(=O)O)ccc3c2)cc1C12CC3CC(CC(C3)C1)C2 [Adapalene],1.14
16,CCC(C(=O)O)c1ccc(N2Cc3ccccc3C2=O)cc1 (stereo not given) [Indobufen],1.06
17,COC1CC2CCC(C)C(O)(O2)C(=O)C(=O)N2CCCCC2C(=O)OC(C(C)CC2CCC(O)C(OC)C2)CC(=O)C(C)/C=C(\C)C(O)C(OC)C(=O)C(C)CC(C)/C=C/C=C/C=C/1C (stereo not given) [Rapamycin (Sirolimus)],0.93
18,COc1ccc(C2CNC(=O)C2)cc1OC1CCCC1 (stereo not given) [Rolipram],1.01
19,Nc1nc(N)c2nc(-c3ccccc3)c(N)nc2n1 [Triamterene],1.05
20,CN(C)CCN1C(=O)c2cccc3cc(N)cc(c23)C1=O [Amonafide],1.14

row,Structure (SMILES),ISRE reporter
1,CN1CCCC1CCOC(C)(c1ccccc1)c1ccc(Cl)cc1.O=C(O)/C=C/C(=O)O (stereo not given) [Clemastine Fumarate],1.2
2,CC12C=CC(=O)C=C1CCC1C3CC(O)C(O)(C(=O)CO)C3(C)CC(O)C12F (stereo not given) [Triamcinolone],0.114
3,CC1CC2C3CCC4=CC(=O)C=CC4(C)C3C(=O)CC2(C)C1(O)C(=O)CO (stereo not given) [Meprednisone],0.934
4,CCS(=O)(=O)O.COC(=O)c1ccc2c(c1)NC(=O)/C2=C(\Nc1ccc(N(C)C(=O)CN2CCN(C)CC2)cc1)c1ccccc1 [Nintedanib Ethanesulfonate Salt],1.05
5,CCCCCCCCCCCCCCCCCCOP(=O)([O-])OC1CC[N+](C)(C)CC1 [Perifosine (KRX-0401)],1.03
6,CCC1(O)CC2CN(CCc3c([nH]c4ccccc34)C(C(=O)OC)(c3cc4c(cc3OC)N(C=O)C3C(O)(C(=O)OC)C(OC(C)=O)C5(CC)C=CCN6CCC43C65)C2)C1 (stereo not given) [Vincristine],0.257
7,Cl.Nc1ccn(C2OC(CO)C(O)C2O)c(=O)n1 (stereo not given) [Cytarabine hydrochloride],1.04
8,CC(=O)OC(C)C(C)C(=O)OCC12C3CC4(C)C(=CCC5C6(C)CCC(OC7OC(C(=O)[O][Na])C(OC8OC(CO)C(O)C(O)C8O)C(O)C7OC7OCC(O)C(O)C7O)C(C)(CO)C6CCC54C)C1CC(C)(C)C(O3)C2O (stereo not given) [Sodium Aescinate],1.1
9,CCC(=O)OC1(C(=O)SCF)C(C)CC2C3CC(F)C4=CC(=O)C=CC4(C)C3(F)C(O)CC21C (stereo not given) [Fluticasone propionate],0.0498
10,CCCCC1(COC(=O)CCC(=O)O)C(=O)N(c2ccccc2)N(c2ccccc2)C1=O [Suxibuzone],1.22
11,CS(=O)(=O)Nc1cc2occ(NC=O)c(=O)c2cc1Oc1ccccc1 [Iguratimod],0.927
12,COc1cc2nccc(Oc3ccc(NC(=O)Nc4cc(C)on4)c(Cl)c3)c2cc1OC [Tivozanib (AV-951)],0.732
13,Cc1ccc(S(=O)(=O)O)cc1.NC(=O)c1cccc2cn(-c3ccc(C4CCCNC4)cc3)nc12 (stereo not given) [Niraparib (MK-4827) tosylate],0.966
14,CC(C)OC(=O)CCC/C=C\CC1C(O)CC(O)C1CCC(O)CCc1ccccc1 (stereo not given) [Latanoprost],0.686
15,"O=c1[nH]cc(F)c(=O)[nH]1 [Fluorouracil (5-Fluoracil, 5-FU)]",1.19
16,CC1(C(=O)O)CCC2(C)CCC3(C)C(=CC(=O)C4C5(C)CCC(OC6OC(C(=O)O)C(O)C(O)C6OC6OC(C(=O)O)C(O)C(O)C6O)C(C)(C)C5CCC43C)C2C1.N.N (stereo not given) [Diammonium Glycyrrhizinate],0.992
17,"CC1(C)CCC(CN2CCN(c3ccc(C(=O)NS(=O)(=O)c4ccc(NCC5CCOCC5)c([N+](=O)[O-])c4)c(Oc4cnc5[nH]ccc5c4)c3)CC2)=C(c2ccc(Cl)cc2)C1 [Venetoclax (ABT-199, GDC-0199)]",0.852
18,CCN(CC)Cc1cc(Nc2ccnc3cc(Cl)ccc23)ccc1O.Cl.Cl [Amodiaquine hydrochloride],0.935
19,CCN(C(=O)c1c(O)c2c(Cl)cccc2n(C)c1=O)c1ccccc1 [Laquinimod],0.992
20,O=C(c1ccc(OCCN2CCCCC2)cc1)c1c(-c2ccc(O)cc2)sc2cc(O)ccc12 [Raloxifene],1.03

# — the supplement of paper PMC9174493
